Measured values taken from the supplement of paper PMC8728848.
Some of the results follow.

Assays:
Assay in all cases: glycan array binding signal (z-score within array); higher = stronger binding
Settings in all cases: glycan notation: IUPAC condensed, linker removed
[1] = molecular target: GlcNAc(a1-4)Gal(b1-3)GlcNAc
How it was run: (§1)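 Columns mapping to the same glycan were averaged after glycan names were converted to IUPAC-condensed notation. The data come from 3228 arrays in the Consortium for Functional Glycomics database, limited to those with an available protein sequence. Binding is reported as a within-array Z-score averaged across arrays of one protein sequence and across linkers.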

[2] = molecular target: GlcNAc(a1-4)Gal(b1-4)GalNAc
How it was run: as §1

[3] = molecular target: GlcNAc(a1-4)Gal(b1-4)GlcNAc
How it was run: as §1

[4] = molecular target: GlcNAc(a1-4)Gal(b1-4)GlcNAc(b1-3)Gal(b1-4)Glc
How it was run: as §1

[5] = molecular target: GlcNAc(a1-4)Gal(b1-4)GlcNAc(b1-3)Gal(b1-4)GlcNAc
How it was run: as §1

[6] = molecular target: GlcNAc(a1-4)Gal(b1-4)GlcNAc(b1-3)Gal(b1-4)GlcNAc(b1-3)Gal(b1-4)GlcNAc
How it was run: as §1

[7] = molecular target: GlcNAc(a1-4)Gal(b1-4)GlcNAc(b1-3)Gal(b1-4)[Fuc(a1-3)]GlcNAc(b1-3)Gal(b1-4)[Fuc(a1-3)]GlcNAc
How it was run: as §1

[8] = molecular target: GlcNAc(a1-6)Gal(b1-4)GlcNAc
How it was run: as §1

[9] = molecular target: GlcNAc(b1-2)Gal(b1-3)GalNAc
How it was run: as §1

[10] = molecular target: GlcNAc(b1-2)Man(a1-3)[GlcNAc(b1-2)Man(a1-6)]Man(b1-4)GlcNAc(b1-4)GlcNAc
How it was run: as §1

[11] = molecular target: GlcNAc(b1-2)Man(a1-3)[GlcNAc(b1-2)Man(a1-6)]Man(b1-4)GlcNAc(b1-4)[Fuc(a1-6)]GlcNAc
How it was run: as §1

[12] = molecular target: GlcNAc(b1-2)Man(a1-3)[GlcNAc(b1-4)][GlcNAc(b1-2)Man(a1-6)]Man(b1-4)GlcNAc(b1-4)GlcNAc
How it was run: as §1

[13] = molecular target: GlcNAc(b1-2)Man(a1-3)[GlcNAc(b1-4)][GlcNAc(b1-2)Man(a1-6)]Man(b1-4)GlcNAc(b1-4)[Fuc(a1-6)]GlcNAc
How it was run: as §1

[14] = molecular target: GlcNAc(b1-2)[GlcNAc(b1-4)]Man(a1-3)[GlcNAc(b1-2)Man(a1-6)]Man(b1-4)GlcNAc(b1-4)GlcNAc
How it was run: as §1

[15] = molecular target: GlcNAc(b1-2)[GlcNAc(b1-4)]Man(a1-3)[GlcNAc(b1-4)][GlcNAc(b1-2)Man(a1-6)]Man(b1-4)GlcNAc(b1-4)GlcNAc
How it was run: as §1

[16] = molecular target: GlcNAc(b1-2)[GlcNAc(b1-4)]Man(a1-3)[GlcNAc(b1-4)][GlcNAc(b1-2)[GlcNAc(b1-6)]Man(a1-6)]Man(b1-4)GlcNAc(b1-4)GlcNAc
How it was run: as §1

[17] = molecular target: GlcNAc(b1-2)[GlcNAc(b1-4)]Man(a1-3)[GlcNAc(b1-4)][GlcNAc(b1-2)[GlcNAc(b1-6)]Man(a1-6)]Man(b1-4)GlcNAc(b1-4)[Fuc(a1-6)]GlcNAc
How it was run: as §1

[18] = molecular target: GlcNAc(b1-2)[GlcNAc(b1-6)]Man(a1-6)[GlcNAc(b1-2)Man(a1-3)]Man(b1-4)GlcNAc(b1-4)GlcNAc
How it was run: as §1

[19] = molecular target: GlcNAc(b1-2)[GlcNAc(b1-6)]Man(a1-6)[GlcNAc(b1-2)Man(a1-3)]Man(b1-4)GlcNAc(b1-4)[Fuc(a1-6)]GlcNAc
How it was run: as §1

[20] = molecular target: GlcNAc(b1-2)[GlcNAc(b1-6)]Man(a1-6)[GlcNAc(b1-4)][GlcNAc(b1-2)Man(a1-3)]Man(b1-4)GlcNAc(b1-4)GlcNAc
How it was run: as §1

[21] = molecular target: GlcNAc(b1-3)Fuc
How it was run: as §1

[22] = molecular target: GlcNAc(b1-3)Gal
How it was run: as §1

[23] = molecular target: GlcNAc(b1-3)Gal(b1-3)GalNAc
How it was run: as §1

[24] = molecular target: GlcNAc(b1-3)Gal(b1-4)Glc
How it was run: as §1

[25] = molecular target: GlcNAc(b1-3)Gal(b1-4)GlcNAc
How it was run: as §1

[26] = molecular target: GlcNAc(b1-3)Gal(b1-4)GlcNAc(b1-2)Man(a1-3)[GlcNAc(b1-3)Gal(b1-4)GlcNAc(b1-2)Man(a1-6)]Man(b1-4)GlcNAc(b1-4)GlcNAc
How it was run: as §1

[27] = molecular target: GlcNAc(b1-3)Gal(b1-4)GlcNAc(b1-2)Man(a1-3)[GlcNAc(b1-3)Gal(b1-4)GlcNAc(b1-2)Man(a1-6)]Man(b1-4)GlcNAc(b1-4)[Fuc(a1-6)]GlcNAc
How it was run: as §1

[28] = molecular target: GlcNAc(b1-3)Gal(b1-4)GlcNAc(b1-2)[GlcNAc(b1-3)Gal(b1-4)GlcNAc(b1-6)]Man(a1-6)[GlcNAc(b1-3)Gal(b1-4)GlcNAc(b1-2)Man(a1-3)]Man(b1-4)GlcNAc(b1-4)GlcNAc
How it was run: as §1

[29] = molecular target: GlcNAc(b1-3)Gal(b1-4)GlcNAc(b1-3)Gal(b1-4)GlcNAc
How it was run: as §1

[30] = molecular target: GlcNAc(b1-3)Gal(b1-4)GlcNAc(b1-3)Gal(b1-4)GlcNAc(b1-2)Man(a1-3)[GlcNAc(b1-3)Gal(b1-4)GlcNAc(b1-3)Gal(b1-4)GlcNAc(b1-2)Man(a1-6)]Man(b1-4)GlcNAc(b1-4)GlcNAc
How it was run: as §1

[31] = molecular target: GlcNAc(b1-3)Gal(b1-4)GlcNAc(b1-3)Gal(b1-4)GlcNAc(b1-2)Man(a1-3)[GlcNAc(b1-3)Gal(b1-4)GlcNAc(b1-3)Gal(b1-4)GlcNAc(b1-2)Man(a1-6)]Man(b1-4)GlcNAc(b1-4)[Fuc(a1-6)]GlcNAc
How it was run: as §1

[32] = molecular target: GlcNAc(b1-3)Gal(b1-4)GlcNAc(b1-3)Gal(b1-4)GlcNAc(b1-2)[GlcNAc(b1-3)Gal(b1-4)GlcNAc(b1-3)Gal(b1-4)GlcNAc(b1-6)]Man(a1-6)[GlcNAc(b1-3)Gal(b1-4)GlcNAc(b1-3)Gal(b1-4)GlcNAc(b1-2)Man(a1-3)]Man(b1-4)GlcNAc(b1-4)[Fuc(a1-6)]GlcNAc
How it was run: as §1

[33] = molecular target: GlcNAc(b1-3)Gal(b1-4)GlcNAc(b1-3)Gal(b1-4)GlcNAc(b1-3)Gal(b1-4)GlcNAc(b1-2)Man(a1-3)[GlcNAc(b1-3)Gal(b1-4)GlcNAc(b1-3)Gal(b1-4)GlcNAc(b1-3)Gal(b1-4)GlcNAc(b1-2)Man(a1-6)]Man(b1-4)GlcNAc(b1-4)GlcNAc
How it was run: as §1

[34] = molecular target: GlcNAc(b1-3)Gal(b1-4)GlcNAc(b1-3)Gal(b1-4)GlcNAc(b1-3)Gal(b1-4)GlcNAc(b1-2)Man(a1-3)[GlcNAc(b1-3)Gal(b1-4)GlcNAc(b1-3)Gal(b1-4)GlcNAc(b1-3)Gal(b1-4)GlcNAc(b1-2)Man(a1-6)]Man(b1-4)GlcNAc(b1-4)[Fuc(a1-6)]GlcNAc
How it was run: as §1

[35] = molecular target: GlcNAc(b1-3)Gal(b1-4)GlcNAc(b1-3)Gal(b1-4)GlcNAc(b1-3)Gal(b1-4)GlcNAc(b1-2)[GlcNAc(b1-3)Gal(b1-4)GlcNAc(b1-3)Gal(b1-4)GlcNAc(b1-3)Gal(b1-4)GlcNAc(b1-6)]Man(a1-6)[GlcNAc(b1-3)Gal(b1-4)GlcNAc(b1-3)Gal(b1-4)GlcNAc(b1-3)Gal(b1-4)GlcNAc(b1-2)Man(a1-3)]Man(b1-4)GlcNAc(b1-4)[Fuc(a1-6)]GlcNAc
How it was run: as §1

[36] = molecular target: GlcNAc(b1-3)Gal(b1-4)GlcNAc(b1-3)Gal(b1-4)GlcNAc(b1-3)Gal(b1-4)GlcNAc(b1-3)Gal(b1-4)GlcNAc(b1-2)Man(a1-3)[GlcNAc(b1-3)Gal(b1-4)GlcNAc(b1-3)Gal(b1-4)GlcNAc(b1-3)Gal(b1-4)GlcNAc(b1-3)Gal(b1-4)GlcNAc(b1-2)Man(a1-6)]Man(b1-4)GlcNAc(b1-4)GlcNAc
How it was run: as §1

[37] = molecular target: GlcNAc(b1-3)Gal(b1-4)GlcNAc(b1-3)Gal(b1-4)GlcNAc(b1-3)Gal(b1-4)GlcNAc(b1-3)Gal(b1-4)GlcNAc(b1-2)Man(a1-3)[GlcNAc(b1-3)Gal(b1-4)GlcNAc(b1-3)Gal(b1-4)GlcNAc(b1-3)Gal(b1-4)GlcNAc(b1-3)Gal(b1-4)GlcNAc(b1-2)Man(a1-6)]Man(b1-4)GlcNAc(b1-4)[Fuc(a1-6)]GlcNAc
How it was run: as §1

[38] = molecular target: GlcNAc(b1-3)Gal(b1-4)GlcNAc(b1-3)Gal(b1-4)GlcNAc(b1-3)Gal(b1-4)GlcNAc(b1-3)Gal(b1-4)GlcNAc(b1-2)[GlcNAc(b1-3)Gal(b1-4)GlcNAc(b1-3)Gal(b1-4)GlcNAc(b1-3)Gal(b1-4)GlcNAc(b1-3)Gal(b1-4)GlcNAc(b1-6)]Man(a1-6)[GlcNAc(b1-3)Gal(b1-4)GlcNAc(b1-3)Gal(b1-4)GlcNAc(b1-3)Gal(b1-4)GlcNAc(b1-3)Gal(b1-4)GlcNAc(b1-2)Man(a1-3)]Man(b1-4)GlcNAc(b1-4)[Fuc(a1-6)]GlcNAc
How it was run: as §1

B1: SP16664D-bth-476-27-476 (Bacteroides thetaiotaomicron) (protein)
chain: DDLEVGKNIDESAYSGIYENNAYLRDGKSNLVSKVVELHGETYATTVKMGLSKTPNTATSAKVKIDAAYLETYNKAHNTDFALYPQDLVTFANEGILTVNANTKSAEVEMTIRAGEGLQEDKTYAIPVAISDQSSDITIKDEDAKHCIYLVKDMRNAGDAYKGEGVMQGYLFFEVNDVNPLNTLSFQLENGKLLWDVVVLFAANINYDAEAGRPRVQCNPNVQYLLDNNETLLQPLRRRGVKVLLGLLGNHDITGLAQLSEQGAKDFAREVAQYCKAYNLDGVNYDDEYSNSPDLSNPSLTNPSTAAAARLCYETKQAMPDKLVTVFDWGQMYGVATVDGVDAKEWIDIVVANYGSAAYPIGQMTKKQCSGISMEFNLGGGGSLSASKAQSMIDGGYGWFMGFAPSPAKYGSVFSRLQGGGEVLYGSNVAAPTIFYKKNDPTPYKYPDDL
glycan array binding signal (z-score) [1]: -0.198 | glycan array binding signal (z-score) [2]: -0.053 | glycan array binding signal (z-score) [3]: 0.104 | glycan array binding signal (z-score) [4]: -0.337 | glycan array binding signal (z-score) [5]: -0.259 | glycan array binding signal (z-score) [6]: -0.185 | glycan array binding signal (z-score) [7]: 1.01 | glycan array binding signal (z-score) [8]: -0.207 | glycan array binding signal (z-score) [9]: -0.173 | glycan array binding signal (z-score) [10]: -0.399 | glycan array binding signal (z-score) [11]: -0.181 | glycan array binding signal (z-score) [12]: 0.108 | glycan array binding signal (z-score) [13]: -0.044 | glycan array binding signal (z-score) [14]: -0.216 | glycan array binding signal (z-score) [15]: -0.339 | glycan array binding signal (z-score) [16]: 0.433 | glycan array binding signal (z-score) [17]: -0.089 | glycan array binding signal (z-score) [18]: 0.031 | glycan array binding signal (z-score) [19]: 0.076 | glycan array binding signal (z-score) [20]: -0.137 | glycan array binding signal (z-score) [21]: 0.007 | glycan array binding signal (z-score) [22]: -0.2 | glycan array binding signal (z-score) [23]: -0.156 | glycan array binding signal (z-score) [24]: -0.066 | glycan array binding signal (z-score) [25]: -0.253 | glycan array binding signal (z-score) [26]: -0.223 | glycan array binding signal (z-score) [27]: 0.073 | glycan array binding signal (z-score) [28]: 0.087 | glycan array binding signal (z-score) [29]: 0.054 | glycan array binding signal (z-score) [30]: 0.328 | glycan array binding signal (z-score) [31]: 0.137 | glycan array binding signal (z-score) [32]: 0.65 | glycan array binding signal (z-score) [33]: 0.341 | glycan array binding signal (z-score) [34]: -0.18 | glycan array binding signal (z-score) [35]: 0.373 | glycan array binding signal (z-score) [36]: -0.126 | glycan array binding signal (z-score) [37]: -0.399 | glycan array binding signal (z-score) [38]: -0.136
